# Hit rate of the full screen: of about 310,000 compounds, about 2,200 (0.71%) showed an effect of 50% or more. Effects have a minus sign here. Some of the results follow.
# Molecular target: human ether-à-go-go-related gene (hERG) potassium channel (human, UniProt Q12809)
# Test: primary screen, population patch clamp on CHO cells stably expressing hERG
# Chain of human ether-à-go-go-related gene (hERG) potassium channel (Q12809 whole entry, looked up): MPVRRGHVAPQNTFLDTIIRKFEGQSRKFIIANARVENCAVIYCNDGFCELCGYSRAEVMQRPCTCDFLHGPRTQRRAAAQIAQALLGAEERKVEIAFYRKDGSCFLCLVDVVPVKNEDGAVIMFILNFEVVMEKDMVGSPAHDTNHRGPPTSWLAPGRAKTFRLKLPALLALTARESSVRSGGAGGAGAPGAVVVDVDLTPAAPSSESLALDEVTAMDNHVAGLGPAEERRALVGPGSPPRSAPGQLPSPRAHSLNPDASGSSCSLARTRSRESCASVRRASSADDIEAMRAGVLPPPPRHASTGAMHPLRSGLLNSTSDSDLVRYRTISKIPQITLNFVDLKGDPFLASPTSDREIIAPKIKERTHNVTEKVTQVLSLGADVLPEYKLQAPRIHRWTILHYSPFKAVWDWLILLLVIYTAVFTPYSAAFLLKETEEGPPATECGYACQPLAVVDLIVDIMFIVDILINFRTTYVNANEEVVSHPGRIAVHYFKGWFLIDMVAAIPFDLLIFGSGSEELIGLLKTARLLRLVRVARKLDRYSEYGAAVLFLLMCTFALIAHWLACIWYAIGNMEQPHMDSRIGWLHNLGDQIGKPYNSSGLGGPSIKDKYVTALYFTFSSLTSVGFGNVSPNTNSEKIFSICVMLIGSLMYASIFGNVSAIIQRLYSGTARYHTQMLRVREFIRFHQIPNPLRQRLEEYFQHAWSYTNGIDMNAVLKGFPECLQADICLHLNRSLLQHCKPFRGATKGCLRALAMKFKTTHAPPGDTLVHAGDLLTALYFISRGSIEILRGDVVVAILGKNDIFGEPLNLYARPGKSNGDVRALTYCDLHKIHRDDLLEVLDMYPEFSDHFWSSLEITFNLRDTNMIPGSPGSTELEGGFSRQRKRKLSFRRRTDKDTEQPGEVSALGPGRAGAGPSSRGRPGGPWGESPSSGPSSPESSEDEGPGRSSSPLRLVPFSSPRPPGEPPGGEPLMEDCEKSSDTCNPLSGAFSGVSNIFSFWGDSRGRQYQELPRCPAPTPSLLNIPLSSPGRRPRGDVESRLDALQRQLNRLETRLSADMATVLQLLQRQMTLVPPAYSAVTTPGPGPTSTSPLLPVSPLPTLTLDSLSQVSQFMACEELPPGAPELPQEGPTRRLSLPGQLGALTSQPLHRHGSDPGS
row,Compound,"hERG current change (%, negative = inhibition) at 1uM [%]"
1,Cl.N=C(c1ccc([N+](=O)[O-])cc1)N1CCCCC1,8.91
2,CCCCNC(=O)c1onc(CSc2cc(C)ccc2C)c1C(=O)O,8.31
3,CCCCN(C(=O)C1CC(=O)N(c2ccc3c(c2)OCCO3)C1)c1c(N)n(CCCC)c(=O)[nH]c1=O (stereo not shown),10.1
4,Cc1cc(C)n2nc(C(=O)Nc3ccc4c(c3)OCO4)cc2n1,-0.546
5,O=C1CCCC/C1=C/NCc1ccc(F)cc1,3.95
6,CCCOc1ccc(CCC(=O)N/N=C/c2ccc([N+](=O)[O-])o2)cc1,12.5
7,Cc1ccc(C)c(N(C(=O)c2csnn2)C(C(=O)NC2CCCCC2)c2cccnc2)c1 (stereo not shown),16.6
8,O=C(NC1(C(F)(F)F)NC(=O)N(Cc2cccnc2)C1=O)c1cccs1 (stereo not shown),5.09
9,Nc1nc(N)c2sc3nc(C(F)(F)F)cc(C(F)(F)F)c3c2n1,-5.04
10,CCc1nnc(NC(=O)C2(C)COC(c3ccccc3)OC2)s1 (stereo not shown),11.6
11,Cc1ccc(C2=NN(C(=O)CCCC(=O)O)C(c3ccc4c(c3)OCO4)C2)cc1 (stereo not shown),15
12,CCn1c(CN2CCOCC2)nnc1SCC(=O)Nc1ccccc1C,20.9
13,O=C(COC(=O)C1CCC1)Nc1cccc(S(=O)(=O)N2CCOCC2)c1,12
14,CCCN1CCC(NC(=S)Nc2ccc([N+](=O)[O-])cc2)CC1,-10.1
15,CC(=O)N1c2ccc(S(=O)(=O)N3CCC(C(=O)N4CCN(c5ccccc5F)CC4)CC3)cc2CC1C (stereo not shown),-24.6
16,CCn1c(NCc2ccc(OC)cc2)nc2ccccc21,0.0776
17,CCOC(=O)c1c(NC(=O)C2COc3ccccc3O2)sc2c1CC(C)(C)NC2(C)C (stereo not shown),2.7
18,CCOc1cc(NC(=S)NCC2CCCO2)c(OCC)cc1NC(=O)c1ccc(F)cc1 (stereo not shown),5.63
19,COC(=O)C1=C(C)N=C2SCCC(=O)N2C1/C=C/c1ccccc1 (stereo not shown),-17.1
20,O=C(Nc1ccc(F)cc1)N1CCCCCC1,11.5
21,c1ccc2nc(-c3ccc(-n4ccnc4)cc3)ccc2c1,7.84
22,CCn1nnnc1SCC(=O)Nc1ccc(OCc2ccccc2)cc1,-7.91
23,Cc1[nH]c2c(Cl)cccc2c1CCN,5.16

row,Compound,"hERG current change (%, negative = inhibition) at 1uM [%]"
1,COc1ccc(CN2CCNC(=O)C2CC(=O)NC2CCCC2)c(OC)c1 (stereo not shown),7.22
2,Nc1nonc1C(=O)NCCNCc1ccccc1,8.93
3,COCCNC(=O)Cc1cn(C)c2ccccc12,5.72
4,O=C(O)Cc1ccc(C(=O)c2ccccc2)s1,12.9
5,Cc1ccc(NC(=O)CCC(=O)N/N=C/c2cccs2)cc1,6.76
6,CCOc1ccc(/C(O)=C2/C(=O)C(=O)N(CCCN3CCOCC3)C2c2ccc(F)cc2)cc1C (stereo not shown),16.5
7,COc1ccnc(N=CNOCc2cccc(Cl)c2Cl)c1C#N,-4.58
8,COc1ccc(-n2c(C)cc(C(=O)COc3ccc(-n4cnnn4)cc3)c2C)cc1,6.98
9,O=C1NCCc2cc3c(cc21)OCO3,5.09
10,O=C(O)c1ccc(N2C(=O)CC(SC(=NCc3ccc4c(c3)OCO4)Nc3ccccc3)C2=O)cc1 (stereo not shown),17.4
11,O=C(OCC(=O)N1CCCC1)c1ccc(Cl)nc1,9.58
12,COc1ccc(NC(=O)CCNS(=O)(=O)c2cc(Br)cnc2N)c(OC)c1,12.3
13,CC(=O)c1cccc(OCC(O)CN2CCN(C(=O)c3ccco3)CC2)c1 (stereo not shown),-5.4
14,CCOc1cccc(C(=O)Nc2nnc(-c3cccs3)s2)c1,-0.832
15,CCCNC(=O)CN(Cc1ccco1)S(=O)(=O)c1ccc(OCC)cc1,3.87
16,CCCN(C(=O)c1cc(S(=O)(=O)N(C)c2ccc(OCC)cc2)ccc1C)C1CCS(=O)(=O)C1 (stereo not shown),7.21
17,COc1ccc(/C=C/C2=NC(=C\N(C)C)/C(=O)O2)cc1,-8.43
18,CC1CCCN(S(=O)(=O)c2ccc(Br)s2)C1 (stereo not shown),2.18
19,O=C(C1CC(=O)N(C2CCCC2)C1)N1CCN(c2ccc(F)cc2)CC1 (stereo not shown),6.46
20,O=C(Nc1ccc2c(c1)OCCO2)c1ccc(Cl)c(S(=O)(=O)N2CCOCC2)c1,-0.604
21,CCC/C=C(\CCC)C(NS(=O)(=O)c1ccc(C(F)(F)F)cc1)c1ccccc1 (stereo not shown),16
22,CCn1c(=O)c(NC(=O)c2ccccc2)c2n(c1=S)CCCCC2,11
23,CCCN(CCC)C(=O)C1CCCN1S(=O)(=O)c1cccc2nsnc12 (stereo not shown),15.2

# From article PMC4336329 (PLoS ONE, 2015)
